{"source": "the BET-seq Pho4 binding data (Le et al. 2018)", "note": "Some of the results follow. These are noisy estimates, calculated here from bound and input reads.", "data": [{"target": "T1, Pho4 (S. cerevisiae) (UniProt P07270)", "T1 sequence": "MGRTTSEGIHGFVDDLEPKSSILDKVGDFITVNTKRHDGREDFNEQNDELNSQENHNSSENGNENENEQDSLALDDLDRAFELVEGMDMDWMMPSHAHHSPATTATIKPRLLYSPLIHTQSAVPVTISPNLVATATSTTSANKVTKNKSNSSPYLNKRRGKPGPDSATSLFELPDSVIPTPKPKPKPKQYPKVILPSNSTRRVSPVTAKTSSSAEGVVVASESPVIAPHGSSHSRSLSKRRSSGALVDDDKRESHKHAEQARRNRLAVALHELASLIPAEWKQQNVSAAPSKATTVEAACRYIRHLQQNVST", "assay": "relative binding free energy (BET-seq); higher = weaker binding", "conditions": "reference: library average", "units": {"relative binding free energy": "kcal/mol"}, "values": [{"sequence": "AATTTCACGTGTGGGT", "relative binding free energy": 0.29}, {"sequence": "TAGGACACGTGAGTGC", "relative binding free energy": 0.23}, {"sequence": "TTAAACACGTGTGAGT", "relative binding free energy": 0.13}, {"sequence": "TTTTGCACGTGTCGGG", "relative binding free energy": 0.1}, {"sequence": "GACTGCACGTGGGGGC", "relative binding free energy": -0.09}, {"sequence": "CTGGGCACGTGGAGTG", "relative binding free energy": -0.26}, {"sequence": "AGTTTCACGTGACTGA", "relative binding free energy": 0.33}, {"sequence": "TCGTACACGTGGGGTT", "relative binding free energy": -0.05}, {"sequence": "TTTATCACGTGAGGCG", "relative binding free energy": 0.34}, {"sequence": "GGGATCACGTGCTGGA", "relative binding free energy": 0.11}, {"sequence": "TCGGGCACGTGGCTAA", "relative binding free energy": -0.01}, {"sequence": "TTTGTCACGTGCGGTA", "relative binding free energy": 0.08}, {"sequence": "TGACGCACGTGGTGCT", "relative binding free energy": -0.2}, {"sequence": "TGAGGCACGTGTTTCT", "relative binding free energy": -0.2}, {"sequence": "CTTGACACGTGTAGGT", "relative binding free energy": 0.07}, {"sequence": "TCGGTCACGTGTAGTT", "relative binding free energy": 0.07}, {"sequence": "GCAGGCACGTGGTAGT", "relative binding free energy": -0.23}, {"sequence": "TGATACACGTGAGTTG", "relative binding free energy": 0.23}, {"sequence": "CTGTGCACGTGTGGTT", "relative binding free energy": 0.11}, {"sequence": "TTTGGCACGTGGGCAG", "relative binding free energy": -0.23}, {"sequence": "GGGTTCACGTGAGCTA", "relative binding free energy": 0.32}, {"sequence": "GGTCACACGTGCGGTT", "relative binding free energy": 0.05}, {"sequence": "GTATCCACGTGGTTGT", "relative binding free energy": -0.04}, {"sequence": "CAAGTCACGTGGTTGT", "relative binding free energy": 0.07}, {"sequence": "GTTAGCACGTGTAGTG", "relative binding free energy": -0.07}, {"sequence": "TCTTACACGTGCGTTT", "relative binding free energy": 0.15}, {"sequence": "TATGGCACGTGGTTAT", "relative binding free energy": -0.19}, {"sequence": "TATCTCACGTGTTGCG", "relative binding free energy": 0.29}, {"sequence": "ATAAGCACGTGTGTGT", "relative binding free energy": 0.03}, {"sequence": "CTCTTCACGTGTTGTG", "relative binding free energy": 0.15}, {"sequence": "GGTGGCACGTGAGTAT", "relative binding free energy": 0.13}, {"sequence": "TATGGCACGTGTGCGA", "relative binding free energy": -0.2}, {"sequence": "AGTGGCACGTGGCTAT", "relative binding free energy": -0.17}, {"sequence": "TGGTCCACGTGTAGGT", "relative binding free energy": 0.03}, {"sequence": "GTCGGCACGTGGGATA", "relative binding free energy": -0.03}, {"sequence": "TCGTTCACGTGCATGT", "relative binding free energy": 0.25}, {"sequence": "GAGTTCACGTGGAGTG", "relative binding free energy": 0.34}, {"sequence": "GATTTCACGTGTCCGG", "relative binding free energy": 0.42}, {"sequence": "TCTTACACGTGATTGG", "relative binding free energy": 0.2}, {"sequence": "GGGGTCACGTGACTGT", "relative binding free energy": 0.21}, {"sequence": "AGGTGCACGTGCTTGG", "relative binding free energy": -0.01}, {"sequence": "ATGTTCACGTGAAGAA", "relative binding free energy": 0.51}, {"sequence": "GTGGTCACGTGACGTA", "relative binding free energy": 0.4}, {"sequence": "GAGTTCACGTGGAGTT", "relative binding free energy": 0.38}, {"sequence": "GGTTACACGTGACTGG", "relative binding free energy": 0.36}, {"sequence": "AGTACCACGTGTTTTT", "relative binding free energy": -0.02}, {"sequence": "GTGCTCACGTGTTGGC", "relative binding free energy": 0.31}, {"sequence": "TTAGACACGTGCTTGT", "relative binding free energy": -0.16}, {"sequence": "GTCGGCACGTGGTGGC", "relative binding free energy": 0}, {"sequence": "GAAGACACGTGTTAGG", "relative binding free energy": 0.11}, {"sequence": "TAAGGCACGTGCAAGT", "relative binding free energy": -0.01}, {"sequence": "GGGTGCACGTGATTAT", "relative binding free energy": 0.16}, {"sequence": "CGTGGCACGTGGTGCT", "relative binding free energy": -0.3}, {"sequence": "ATCGTCACGTGGGGTG", "relative binding free energy": -0.2}, {"sequence": "AGATCCACGTGGGGTG", "relative binding free energy": -0.17}, {"sequence": "AGTTTCACGTGGTTCG", "relative binding free energy": 0.22}, {"sequence": "TATTTCACGTGGCTGA", "relative binding free energy": 0.23}, {"sequence": "TTGATCACGTGGGACT", "relative binding free energy": 0.14}, {"sequence": "AGGAGCACGTGGTCGG", "relative binding free energy": -0.21}, {"sequence": "AGGTGCACGTGAGCTT", "relative binding free energy": 0.18}, {"sequence": "GATTTCACGTGACTTT", "relative binding free energy": 0.45}, {"sequence": "ACGGCCACGTGGTGGT", "relative binding free energy": -0.16}, {"sequence": "CTTGTCACGTGACGTT", "relative binding free energy": 0.22}, {"sequence": "TTTGCCACGTGTAGGA", "relative binding free energy": -0.05}, {"sequence": "CGTATCACGTGGTGGA", "relative binding free energy": 0}, {"sequence": "TTGGTCACGTGATCTT", "relative binding free energy": 0.2}, {"sequence": "TATTTCACGTGGGGCT", "relative binding free energy": 0.18}, {"sequence": "CGGTTCACGTGAGGGC", "relative binding free energy": 0.4}, {"sequence": "TAGCACACGTGAGGTT", "relative binding free energy": 0.34}, {"sequence": "TGTTACACGTGTGGCT", "relative binding free energy": 0.25}, {"sequence": "AGAAGCACGTGTCGGG", "relative binding free energy": 0}, {"sequence": "TGATGCACGTGTGTGG", "relative binding free energy": -0.03}, {"sequence": "AAGTACACGTGAATGA", "relative binding free energy": 0.37}, {"sequence": "TAGTTCACGTGTCGTT", "relative binding free energy": 0.4}, {"sequence": "TGGGTCACGTGAAAGT", "relative binding free energy": 0.34}, {"sequence": "TTATACACGTGAGTTC", "relative binding free energy": 0.26}, {"sequence": "ATGATCACGTGATCGT", "relative binding free energy": 0.2}, {"sequence": "GTTATCACGTGTTGGC", "relative binding free energy": 0.19}, {"sequence": "TGCCTCACGTGGGGGG", "relative binding free energy": -0.03}, {"sequence": "AGGGCCACGTGAGGAA", "relative binding free energy": 0.18}, {"sequence": "CGTAGCACGTGTTTGG", "relative binding free energy": -0.03}, {"sequence": "TTGTGCACGTGTTGAT", "relative binding free energy": 0.02}, {"sequence": "TTAAGCACGTGCTGTT", "relative binding free energy": -0.13}, {"sequence": "TATATCACGTGTTCAT", "relative binding free energy": 0.08}, {"sequence": "AAATTCACGTGGAGTT", "relative binding free energy": 0.2}, {"sequence": "ATGGGCACGTGTATGA", "relative binding free energy": -0.04}, {"sequence": "GTTATCACGTGGACAG", "relative binding free energy": 0.2}, {"sequence": "CATATCACGTGTGGTT", "relative binding free energy": 0.15}, {"sequence": "TAGAACACGTGTGGTT", "relative binding free energy": -0.05}, {"sequence": "AGGGGCACGTGTGGAG", "relative binding free energy": -0.05}, {"sequence": "CTTCGCACGTGGGGCG", "relative binding free energy": -0.12}, {"sequence": "AGTATCACGTGATAGT", "relative binding free energy": 0.14}, {"sequence": "CGTGGCACGTGGAGCA", "relative binding free energy": -0.15}, {"sequence": "CGATACACGTGTGGTG", "relative binding free energy": 0.05}, {"sequence": "TATCTCACGTGTTTGA", "relative binding free energy": 0.25}, {"sequence": "GGGATCACGTGTAGGA", "relative binding free energy": 0.16}, {"sequence": "GTGTGCACGTGGTGGT", "relative binding free energy": 0.05}, {"sequence": "GTGTGCACGTGTCTTC", "relative binding free energy": 0.06}, {"sequence": "TTATACACGTGTGAAT", "relative binding free energy": 0.22}, {"sequence": "AGTAGCACGTGGCGGC", "relative binding free energy": -0.27}, {"sequence": "GGATACACGTGTTGGT", "relative binding free energy": 0.1}, {"sequence": "TATCGCACGTGTTTAG", "relative binding free energy": -0.13}, {"sequence": "TGGAGCACGTGGTGAC", "relative binding free energy": -0.13}, {"sequence": "AGGTACACGTGTGGAT", "relative binding free energy": 0.07}, {"sequence": "GATTTCACGTGATCGT", "relative binding free energy": 0.5}, {"sequence": "GTGGGCACGTGCTGGG", "relative binding free energy": -0.15}, {"sequence": "TCTGGCACGTGATGGG", "relative binding free energy": -0.04}, {"sequence": "TTGTGCACGTGCTTTG", "relative binding free energy": -0.18}, {"sequence": "GGTAGCACGTGAAGTA", "relative binding free energy": 0.16}, {"sequence": "GGTTACACGTGTTGGG", "relative binding free energy": 0.17}, {"sequence": "TGTTACACGTGAAGCG", "relative binding free energy": 0.28}, {"sequence": "ATGTACACGTGTATAT", "relative binding free energy": 0.04}, {"sequence": "TTATTCACGTGGAGCT", "relative binding free energy": 0.27}, {"sequence": "AACTGCACGTGGTGTT", "relative binding free energy": -0.14}, {"sequence": "TGGTTCACGTGCTTGG", "relative binding free energy": 0.25}]}]}
